Results: PubChem BioAssay AID2147 (National Center for Advancing Translational Sciences (NCATS), 2009)
Hit rate of the full screen: of about 230,000 compounds, about 3,600 (1.6%) were called active. The inconclusive results got no clear call from the source; some entries with a clear call stand among them for comparison. Calls follow the shape of the dose curve; as a rule, active = well fitted inhibition curve with a large enough effect (not every such curve was filed as active); inconclusive = small, poorly fitted or top-dose-only effect, or another doubt; inactive = no such curve, though single readings can be large or run the other way. Potencies beside an inconclusive call are fits to weak or partial responses and may not hold up.

Each compound was assayed against Lysine-specific demethylase 4E (Homo sapiens) (UniProt B2RXH2) (assay: qHTS Assay for Inhibitors of Human Jumonji Domain Containing 2E (JMJD2E)). Settings: JMJD2E catalytic domain, FDH-coupled NADH fluorescence (FDH is formaldehyde dehydrogenase); series mostly up to 57.1 µM; activity change, negative = inhibition: at the top concentration.
Sequence of UniProt B2RXH2 (B2RXH2 whole entry, looked up, the tested form may be a part): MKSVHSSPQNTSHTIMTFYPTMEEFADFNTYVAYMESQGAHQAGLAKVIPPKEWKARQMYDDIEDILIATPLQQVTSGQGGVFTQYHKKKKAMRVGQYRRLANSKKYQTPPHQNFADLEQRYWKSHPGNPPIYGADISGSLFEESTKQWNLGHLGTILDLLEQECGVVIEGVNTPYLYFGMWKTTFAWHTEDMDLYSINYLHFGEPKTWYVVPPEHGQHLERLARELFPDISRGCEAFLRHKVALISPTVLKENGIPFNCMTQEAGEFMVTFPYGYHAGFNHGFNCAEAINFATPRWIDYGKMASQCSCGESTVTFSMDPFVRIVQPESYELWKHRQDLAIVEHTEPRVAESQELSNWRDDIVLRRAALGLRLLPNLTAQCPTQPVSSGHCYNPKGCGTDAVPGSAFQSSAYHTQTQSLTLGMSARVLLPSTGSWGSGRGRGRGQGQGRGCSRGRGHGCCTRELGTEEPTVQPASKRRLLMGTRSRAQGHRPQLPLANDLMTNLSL
Also: nearly all actives have a fitted effect of over 50% in size.
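For activity change, negative = inhibition in this document: 0% = wells with enzyme and -100% = buffer wells without enzyme.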
Potency is read from the fitted curve at half-maximal effect; tags tell the direction and shape of the fitted curve.

| SMILES | Potency | activity change, negative = inhibition |
| --- | --- | --- |
| C(=Nc1ccc(N2CCOCC2)cc1)c1c[nH]c2ccccc12 | inconclusive: 12.6 µM [inhibitor, partial curve] |  |
| Cc1cc(C)n(-c2nc3ccccc3nc2Nc2ccc3c(c2)OCO3)n1 |  | inactive: -7.11% |
| O=S(=O)(O)c1ccc(N2N=C(c3ccccc3)CC2c2ccccc2)cc1 (centres undefined) | inconclusive: 31.6 µM [inhibitor, partial curve] |  |
| Nc1ccc(SC(F)(F)F)cc1 | inconclusive: 28.2 µM [inhibitor, single point] |  |
| N#Cc1nc(-c2ccco2)oc1NCc1cccnc1 | inconclusive: 35.5 µM [inhibitor, partial curve] |  |
| O=C(Nc1ccccn1)c1ccc(Br)c(S(=O)(=O)N2CCCCC2)c1 | inconclusive: 31.6 µM [inhibitor, partial curve] |  |
| O=C(NN1C(=O)c2ccc3c4c(ccc(c24)C1=O)CC3)c1ccc(Br)cc1 | inconclusive: 12.6 µM [inhibitor, partial curve] |  |
| COc1ccc(C(=O)/C=C/C(=O)N(Cc2ccc3c(c2)OCO3)C(C(=O)NC2CCCCC2)c2ccncc2)c(O)c1 (centres undefined) | inconclusive: 35.5 µM [inhibitor, single point] |  |
| COCCn1nc2cc(C(=O)NCC34CC5CC(CC(C5)C3)C4)ccc2c1OC | inconclusive: 31.6 µM [inhibitor, partial curve] |  |
| CC(C)(C)c1ccc(C(=O)Oc2ccc3c(c2)OCC3=O)cc1 |  | inactive: -1.1% |
| Cc1nn(C(C)C(=O)NNC(=S)Nc2ccc(Cl)cc2)c(C)c1[N+](=O)[O-] (centres undefined) |  | inactive: 12.2% |
| COc1ccc(-c2cc(-c3ccc(OC)c(OC)c3)n[nH]2)c(O)c1 | inconclusive: 28.2 µM [inhibitor, single point] |  |
| COc1cc(/C=N/Nc2nc3ccccc3s2)ccc1O | inconclusive: 25.1 µM [inhibitor, single point] |  |
| CC1(C)CC(=O)C(C=NCCN2CCOCC2)=C(O)C1 |  | inactive: -1.44% |
| CNc1nc(-c2cccs2)cc(C(F)(F)F)c1C#N | inconclusive: 2.82 µM [inhibitor, full curve] |  |
| CCOC(=O)CCCn1ncn2c(cc3occc32)c1=O | inconclusive: 39.8 µM [inhibitor, single point] |  |
| CCOc1cccc(CNCCO)c1OCc1ccc(Cl)cc1Cl |  | inactive: 1.86% |
| Cc1cccc(-n2ncc3c(N4CCCc5ccccc54)ncnc32)c1 | inconclusive: 28.2 µM [inhibitor, partial curve] |  |
| Cc1ccc2nc(CSc3nnc(-c4ccco4)o3)cc(=O)n2c1 | inconclusive: 25.1 µM [inhibitor, single point] |  |
| Cc1cc(C)n2c(SCCO)nnc2n1 | inconclusive: 22.4 µM [inhibitor, single point] |  |
| O=C(NCC1CCCO1)C(c1cccs1)N(Cc1cccs1)C(=O)c1ccc(-c2ccccc2)[nH]1 (centres undefined) | inconclusive: 39.8 µM [inhibitor, single point] |  |
| O=c1c2c3c(sc2nc(NCCO)n1CCc1ccccc1)CCCCC3 |  | inactive: -16% |
| Nc1cc(C(=O)O)ccc1N1CCCCC1 | inconclusive: 28.2 µM [inhibitor, partial curve] |  |

| SMILES | Potency | activity change, negative = inhibition |
| --- | --- | --- |
| COc1ccccc1NS(=O)(=O)c1ccc(C)c(NC(=O)NCCCl)c1 | inconclusive: 28.2 µM [inhibitor, single point] |  |
| O=C(O)CCC(=O)NN1C(=O)c2ccccc2NC1c1ccc(F)cc1 (centres undefined) | inconclusive: 31.6 µM [inhibitor, partial curve] |  |
| Cc1ccc(S(=O)(=O)n2cnc3cc([N+](=O)[O-])ccc32)c(C)c1C | inconclusive: 25.1 µM [inhibitor, partial curve] |  |
| O=C(NC1(C(F)(F)F)C(=O)Nc2c1c(=O)[nH]c(=O)n2Cc1ccco1)C1CCCCC1 (centres undefined) |  | inactive: -4.55% |
| Clc1ncc2[nH]cnc2n1 | inconclusive: 15.8 µM [inhibitor, partial curve] |  |
| O=C(CNCC1CCCCC1)Nc1cccc(S(=O)(=O)N2CCOCC2)c1 | inconclusive: 35.5 µM [inhibitor, single point] |  |
| COCCCNC(=O)c1ccc(N2CCCC2)c(NS(=O)(=O)c2ccc(C)cc2)c1 | inconclusive: 31.6 µM [inhibitor, partial curve] |  |
| C=CCc1ccc(OCCOc2ccc(/C=N/n3cnnc3)cc2OCC)c(OC)c1 | inconclusive: 31.6 µM [inhibitor, single point] |  |
| COc1ccc(/C=C/c2nnc(NC(=O)C(C)(C)C)s2)cc1 | inconclusive: 31.6 µM [inhibitor, partial curve] |  |
| COc1ccc(OC)c(C(=O)CSc2nnc(-c3cccs3)o2)c1 | inconclusive: 31.6 µM [inhibitor, partial curve] |  |
| COc1ccc(OCC(O)CN2C(=O)c3ccccc3S2(=O)=O)cc1 (centres undefined) |  | inactive: -6.89% |
| O=C(Cc1nn[nH]n1)Nc1ccc(F)cc1F |  | inactive: -6.2% |
| CCCn1c(SCc2cc(=O)oc3ccc4ccccc4c23)n[nH]c1=O | inconclusive: 25.1 µM [inhibitor, single point] |  |
| CCOc1cc2c(C#N)c(N3CCOCC3)nc(N)c2c(N)n1 | inconclusive: 28.2 µM [inhibitor, partial curve] |  |
| O=C(Nc1ccc(-c2nc3ccccc3s2)cc1)C1=COCCO1 | inconclusive: 14.1 µM [inhibitor, partial curve] |  |
| O=S(=O)(c1cc(Cl)ccc1Cl)N1CCCC1 |  | inactive: -2% |
| CN1CC(=O)N(CC(=O)Nc2ccc(N(C)C)cc2)c2ccccc2C1=O | inconclusive: 22.4 µM [inhibitor, single point] |  |
| COc1ccc(-c2cc(C(=O)N3CCN(c4ccccc4)CC3)c3ccccc3n2)cc1 | inconclusive: 28.2 µM [inhibitor, partial curve] |  |
| Cc1cccc(NC(=O)Cn2nnc3sc4c(c3c2=O)CC(C)(C)OC4)c1 | inconclusive: 8.91 µM [inhibitor, single point] |  |
| COc1cc(C)ccc1OCCOCCN(C)Cc1ccccc1 | inconclusive: 31.6 µM [inhibitor, single point] |  |
| CCn1c(CCn2ccnc2C)n[nH]c1=S |  | inactive: -5% |
| O=C(c1ccccc1F)N1CCN(c2ccc([N+](=O)[O-])c3cccnc23)CC1 |  | inactive: -0.146% |
| O=C(COc1ccc(F)cc1)Nc1nnc(-c2ccncc2)s1 | inconclusive: 22.4 µM [inhibitor, partial curve] |  |

| SMILES | Potency | activity change, negative = inhibition |
| --- | --- | --- |
| Cn1cc(NC(=O)c2cc(NC(=O)c3cc(NC=O)cn3C)cn2C)cc1C(=O)NCCC(=N)N | inconclusive: 28.2 µM [inhibitor, single point] |  |
| CCOc1ccc(/C=N/n2cc(-c3ccccc3)[nH]c2=S)cc1 | inconclusive: 39.8 µM [inhibitor, single point] |  |
| COc1ccccc1-n1c(CNC(=O)c2ccc(S(=O)(=O)N3CCOCC3)cc2)n[nH]c1=S |  | inactive: 3.84% |
| N#Cc1c(-c2ccccc2)nc(SCC(=O)N(c2ccccc2)c2ccccc2)[nH]c1=O |  | inactive: -3.22% |
| C#CCOCCOCCOCCNc1nc(N2CCN(C(=O)[C@H]([C@@H](C)O)n3cc(CCCCN)nn3)CC2)nc(N2CCN(C(=O)[C@H](Cc3ccc(O)cc3)n3cc(CCO)nn3)CC2)n1 | inconclusive: 39.8 µM [inhibitor, single point] |  |
| COc1cccc(NC(=O)Cn2c(=O)n(-c3ccccc3)c(=O)c3sccc32)c1 |  | inactive: 1.39% |
| CN(C/C=C/c1ccccc1)C1CCCCC1 | inconclusive: 39.8 µM [inhibitor, single point] |  |
| COc1cccc(/C=C/C(=O)NCc2cn3cc(Cl)ccc3n2)c1OC | inconclusive: 31.6 µM [inhibitor, partial curve] |  |
| Cc1cc(N(C)C)ccc1N=Nc1ccc2ncccc2c1 |  | inactive: -24.7% |
| CC1(C)S[C@@H]2[C@H](NC(=O)[C@@H](N)c3ccc(O)cc3)C(=O)N2[C@H]1C(=O)O | inconclusive: 10 µM [inhibitor, single point] |  |
| Cc1ccc2occ(C3N[C@H](C(=O)O)CS3)c(=O)c2c1 (some centres undefined) | inconclusive: 35.5 µM [inhibitor, single point] |  |
| O=C(CCn1cnc(-c2ccccc2)c1-c1ccccc1)N/N=C/c1ccccc1O | inconclusive: 31.6 µM [inhibitor, single point] |  |
| CCCCNC(=O)COC(=O)c1cc2c(C)nn(-c3ccccc3)c2s1 | inconclusive: 4.47 µM [inhibitor, full curve] |  |
| CC[C@H](NC(C)C)[C@H](O)c1ccc(O)c(O)c1 | active: 11.2 µM |  |
| COC(=O)CNC(c1ccccc1)c1cc(C)ccc1NC(=O)c1cccc(Cl)c1 (centres undefined) | inconclusive: 35.5 µM [inhibitor, single point] |  |
| Cc1ccccc1C(=O)NNC(=S)NC(=O)c1ccc(Cl)cc1Cl | inconclusive: 39.8 µM [inhibitor, single point] |  |
| CN(C)c1ccc(CNc2nc(-c3ccccc3)nn2S(C)(=O)=O)cc1 |  | inactive: -5.39% |
| CSC1=N/C(=C\c2ccccc2C)C(=O)S1 | inconclusive: 15.8 µM [inhibitor, partial curve] |  |
| CC(=O)Nc1nonc1-c1nc2ccccc2n1Cc1ccccc1 | inconclusive: 8.91 µM [inhibitor, partial curve] |  |
| Cn1ccnc1Sc1nc2ccccc2nc1NS(=O)(=O)c1ccccc1 | inconclusive: 39.8 µM [inhibitor, single point] |  |
| CCOC(=O)c1ccc(Nc2nc(C(=O)OCC)nc3ccccc23)cc1 | inconclusive: 35.5 µM [inhibitor, single point] |  |
| O=C(CNS(=O)(=O)c1ccccc1)NCC(=O)OCc1ccc(C(=O)c2ccccc2)cc1 |  | inactive: -25% |
| COc1cccc2c3c(c(C)nc12)CCN3c1ccccc1 | inconclusive: 14.1 µM [inhibitor, partial curve] |  |
